Test results from patent US7772236B2, “Substituted pyrazoles” (Ortho McNeil Pharmaceutical, Inc., priority 2000, dated 2010).

target: T1, Recombinant human cathepsin S (CatS) (Homo sapiens, UniProt P25774); assay: not given; details: Table 3; 100 mM sodium acetate pH 5.0, 1 mM DTT, 100 mM NaCl; fluorescent peptide substrate

| Structure (SMILES) | IC50 |
| --- | --- |
| COC(=O)c1cccc(NS(C)(=O)=O)c1N1CCN(CC(O)Cn2nc(-c3ccc(C(F)(F)F)cc3)c3c2CCN(S(C)(=O)=O)C3)CC1 (centres unmarked) [Example 302, 2-(4-{2-Hydroxy-3-[5-methanesulfonyl-3-(4-trifluoromethyl-phenyl)-4,5,6,7-tetrahydro-pyrazolo[4,3-c]pyridin-1-yl]-propyl}-piperazin-1-yl)-3-methanesulfonylamino-benzoic acid methyl ester] | 70 nM |
| CNC(=O)Nc1cccc(Cl)c1N1CCN(CC(O)Cn2nc(-c3ccc(C(F)(F)F)cc3)c3c2CCN(S(C)(=O)=O)C3)CC1 (centres unmarked) [Example 285, 1-[3-Chloro-2-(4-{2-hydroxy-3-[5-methanesulfonyl-3-(4-trifluoromethyl-phenyl)-4,5,6,7-tetrahydro-pyrazolo[4,3-c]pyridin-1-yl]-propyl}-piperazin-1-yl)-phenyl]-3-methyl-urea] | 40 nM |

target: T1, Recombinant human cathepsin S (CatS); assay: biochemical; details: not given

| IC50 | Structure (SMILES) |
| --- | --- |
| 810 nM | CC(=O)Nc1cc(-c2nn(CC(O)CN3CCN(c4ccccc4C)CC3)c3c2CN(C(C)=O)CC3)ccc1Cl (centres unmarked) [Example 230, N-(5-{5-Acetyl-1-[2-hydroxy-3-(4-o-tolyl-piperazin-1-yl)-propyl]-4,5,6,7-tetrahydro-1H-pyrazolo[4,3-c]pyridin-3-yl}-2-chloro-phenyl)-acetamide] |
| 190 nM | Cc1ccccc1N1CCN(CCCn2nc(-c3ccc(C(F)(F)F)cc3)c3c2CCN(S(C)(=O)=O)C3)CC1 [Example 266, 5-Methanesulfonyl-1-[3-(4-o-tolyl-piperazin-1-yl)-propyl]-3-(4-trifluoromethyl-phenyl)-4,5,6,7-tetrahydro-1H-pyrazolo[4,3-c]pyridine] |
| 160 nM | CC(=O)N1CCc2c(c(-c3ccc(Cl)c([N+](=O)[O-])c3)nn2CC(O)CN2CCN(c3ccccc3C#N)CC2)C1 (centres unmarked) [Example 211, 2-(4-{3-[5-Acetyl-3-(4-chloro-3-nitro-phenyl)-4,5,6,7-tetrahydro-pyrazolo[4,3-c]pyridin-1-yl]-2-hydroxy-propyl}-piperazin-1-yl)-benzonitrile] |
| 290 nM | CC(=O)N1CCc2c(c(-c3ccc(Br)c(Cl)c3)nn2CC(O)CN2CCN(c3ccccc3C#N)CC2)C1 (centres unmarked) [Example 262, 2-(4-{3-[5-Acetyl-3-(4-bromo-3-chloro-phenyl)-4,5,6,7-tetrahydro-pyrazolo[4,3-c]pyridin-1-yl]-2-hydroxy-propyl}-piperazin-1-yl)-benzonitrile] |
| 7400 nM | COc1ccc(-c2nn(CC(O)CN3CCN(c4ccccc4OC)CC3)c3c2CN(C(C)=O)CC3)cc1 (centres unmarked) [Example 126, 1-[1-{2-Hydroxy-3-[4-(2-methoxy-phenyl)-piperazin-1-yl]-propyl}-3-(4-methoxy-phenyl)-1,4,6,7-tetrahydro-pyrazolo[4,3-c]pyridin-5-yl]-ethanone] |
| 1900 nM | COc1ccccc1N1CCN(CC(O)Cn2nc(-c3ccc(Cl)cc3F)c3c2CCN(C(C)=O)C3)CC1 (centres unmarked) [Example 196, 1-(3-(4-Chloro-2-fluoro-phenyl)-1-{2-hydroxy-3-[4-(2-methoxy-phenyl)-piperazin-1-yl]-propyl}-1,4,6,7-tetrahydro-pyrazolo[4,3-c]pyridin-5-yl)-ethanone] |
| 1500 nM | CC(=O)N1CCc2c(c(-c3ccc(C(F)(F)F)cc3)nn2CC(CN2CCN(c3ccccc3C)CC2)OC(N)=O)C1 (centres unmarked) [Example 237, Carbamic acid 2-[5-acetyl-3-(4-trifluoromethyl-phenyl)-4,5,6,7-tetrahydro-pyrazolo[4,3-c]pyridin-1-yl]-1-(4-o-tolyl-piperazin-1-ylmethyl)-ethyl ester] |

| Structure (SMILES) | IC50 |
| --- | --- |
| N#Cc1ccccc1N1CCN(CC(Cn2nc(-c3ccc(I)cc3)c3c2CCN(C(N)=O)C3)OC(N)=O)CC1 (centres unmarked) [Example 11, Carbamic acid 1-[5-carbamoyl-3-(4-iodo-phenyl)-4,5,6,7-tetrahydro-pyrazolo[4,3-c]pyridin-1-ylmethyl]-2-[4-(2-cyano-phenyl)-piperazin-1-yl]-ethyl ester] | 30 nM |
| CS(=O)(=O)N1CCc2c(c(-c3ccc(C(F)(F)F)cc3)nn2CCCN2CCN(C3=NS(=O)(=O)c4ccccc43)CC2)C1 [Example 22, 1-{3-[4-(1,1-Dioxo-1H-1λ^6-benzo[d]isothiazol-3-yl)-piperazin-1-yl]-propyl}-5-methanesulfonyl-3-(4-trifluoromethyl-phenyl)-4,5,6,7-tetrahydro-1H-pyrazolo[4,3-c]pyridine] | 2150 nM |
| COC(CN1CCN(c2ccccc2C)CC1)Cn1nc(-c2ccc(Cl)cc2)c2c1CCN(C(C)=O)C2 (centres unmarked) [Example 3, 1-{3-(4-Chloro-phenyl)-1-[2-methoxy-3-(4-o-tolyl-piperazin-1-yl)-propyl]-1,4,6,7-tetrahydro-pyrazolo[4,3-c]pyridin-5-yl}-ethanone] | 840 nM |
| COC(=O)Nc1cccc(Cl)c1N1CCN(CCCn2nc(-c3ccc(C(F)(F)F)cc3)c3c2CCN(S(C)(=O)=O)C3)CC1 [Example 32, [3-Chloro-2-(4-{3-[5-methanesulfonyl-3-(4-trifluoromethyl-phenyl)-4,5,6,7-tetrahydro-pyrazolo[4,3-c]pyridin-1-yl]-propyl}-piperazin-1-yl)-phenyl]-carbamic acid methyl ester] | 100 nM |
| CC(=O)N1CCc2c(c(-c3ccc(C(F)(F)F)cc3)nn2CC(O)CN2CCN(c3ccccc3C)CC2)C1 (centres unmarked) [Example 5, 1-[1-[2-Hydroxy-3-(4-o-tolyl-piperazin-1-yl)-propyl]-3-(4-trifluoromethyl-phenyl)-1,4,6,7-tetrahydro-pyrazolo[4,3-c]pyridin-5-yl]-ethanone] | 360 nM |
